# Reference: the supplement of paper PMC3334620
# The full ranking holds about 33,000 sequences; the median of “E-score (-0.5 to 0.5)” is about -0.012, and the highest 2% start at about 0.29. The list shows a part of the results.
# Molecular target: T1, Ybr033w (UniProt P38073)
# T1 sequence: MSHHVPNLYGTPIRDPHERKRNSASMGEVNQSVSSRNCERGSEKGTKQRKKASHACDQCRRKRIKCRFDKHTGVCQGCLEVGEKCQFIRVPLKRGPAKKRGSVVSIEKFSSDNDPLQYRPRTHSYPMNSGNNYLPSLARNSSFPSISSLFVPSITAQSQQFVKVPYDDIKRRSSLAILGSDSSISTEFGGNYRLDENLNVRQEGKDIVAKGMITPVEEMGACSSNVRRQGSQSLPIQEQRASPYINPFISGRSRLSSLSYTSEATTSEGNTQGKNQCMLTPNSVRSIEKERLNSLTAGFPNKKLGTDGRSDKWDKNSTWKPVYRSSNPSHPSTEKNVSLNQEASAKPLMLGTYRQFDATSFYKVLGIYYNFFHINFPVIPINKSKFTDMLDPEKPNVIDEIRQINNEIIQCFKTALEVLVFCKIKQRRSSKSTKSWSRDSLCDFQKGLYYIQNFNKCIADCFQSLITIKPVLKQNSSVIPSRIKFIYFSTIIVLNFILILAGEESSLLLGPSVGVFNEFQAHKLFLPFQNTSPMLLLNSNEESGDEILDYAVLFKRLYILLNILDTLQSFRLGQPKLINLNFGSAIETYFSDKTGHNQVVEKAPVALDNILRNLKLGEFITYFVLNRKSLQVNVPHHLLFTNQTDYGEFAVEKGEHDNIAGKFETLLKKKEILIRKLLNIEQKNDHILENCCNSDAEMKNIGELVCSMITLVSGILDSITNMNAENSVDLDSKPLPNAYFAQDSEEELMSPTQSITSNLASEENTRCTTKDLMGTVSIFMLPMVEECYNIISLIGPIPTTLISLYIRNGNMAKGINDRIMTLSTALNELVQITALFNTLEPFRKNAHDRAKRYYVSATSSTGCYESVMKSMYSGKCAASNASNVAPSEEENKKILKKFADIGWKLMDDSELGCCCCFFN
# Test: PBM E-score (8-mer binding enrichment) (E-score (-0.5 to 0.5)); higher = stronger / more preferred TF binding; most listed sequences are background and not binding sites
# Conditions: protein concentration: 200 nM; construct: GST-full length
# Method in brief: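 Universal all-10-mer Agilent arrays, double-stranded by primer extension on fresh or once-stripped slides, were probed with about 100-200 nM GST-tagged yeast transcription factors made by PURExpress. Fluorescent anti-GST detected bound protein, and masliner normalised the scans. E-scores from the Universal PBM Analysis Suite were given to each ungapped eight-base word pooled with its reverse complement.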
row,Sequence,PBM E-score
1,ATGACCGA,-0.0258
2,GGTACCAA,-0.137
3,ATTTTCTA,0.264
4,AAAAGTTC,0.373
5,CGGGCACC,-0.106
6,AAACTCTG,0.0435
7,CCCTAGGC,-0.0718
8,GGACCTTA,-0.226
9,CGTACTAG,0.0511
10,TAGTGAAA,0.0868
11,AGGGTCGG,-0.164
12,CGGGTATA,0.0469
13,AGAGCACT,0.155
14,TATACCCA,-0.16
15,ATGCGTAA,0.116
16,CCCTTGCG,-0.205
17,AGTGTATC,0.0453
18,CGCAAGTC,-0.213
19,AGTCCCCG,-0.202
20,AGTGAGAT,0.0696
21,AATTGATC,0.354
22,CATAAGGG,-0.115

row,Sequence,PBM E-score
1,CCGCTGGC,-0.209
2,GAAACACC,0.127
3,AGCCTATA,0.0186
4,GCCCACTA,-0.0889
5,GGACCAGA,-0.0563
6,GGTCTAAA,0.0775
7,CTCCACCA,-0.122
8,ACATACGG,-0.112
9,TAAGACCA,-0.00263
10,CGAGCTGC,-0.149
11,ACTTTCTA,0.135
12,GAAACAAC,0.0455
13,TACAGGGA,-0.116
14,AAGCGACC,0.152
15,CGTCGGAC,-0.256
16,AGAACTGG,0.158
17,GGGGGCTA,-0.364
18,AACGACCA,0.0134
19,AATACTGA,0.106
20,AATGGCAT,0.207
21,ATGCTTCA,0.0658
22,GGAGGACA,-0.138

row,Sequence,PBM E-score
1,GGGACTAA,-0.0838
2,AAAGGTGC,-0.0591
3,AGCTGCTC,-0.124
4,ATCGTACC,-0.104
5,AAGTCCAA,0.125
6,CAGCTTAC,0.0422
7,GGTAGGCA,-0.228
8,AATTTCCA,0.282
9,CACGCAAA,0.073
10,AGGTAGAA,0.0484
11,AAAAGGGC,-0.00447
12,CGAGTTGA,0.0834
13,GCGCATCA,0.0276
14,GCACGGAA,-0.0633
15,GCTCCCAC,-0.0972
16,CAAACTAC,0.122
17,AGCTGCCA,-0.135
18,CGTTCCGC,-0.00657
19,CCAGATCG,-0.0568
20,CGCAACAG,-0.0758
21,CCCACTTA,0.0404
22,ACATAGAA,-0.0174

row,Sequence,PBM E-score
1,ATTTTCAA,0.229
2,CAGCGGAC,-0.128
3,AAGACAAA,0.143
4,ATACCTCA,0.229
5,ATTACAAC,0.129
6,CTTTGATC,-0.0123
7,CACTAAAG,0.145
8,TAAAGGTA,0.0512
9,CTGGATTC,0.00016
10,CAGCCCTG,-0.325
11,ACTTCCTC,0.00724
12,TCCCGTAA,-0.0379
13,CGACGCAG,-0.195
14,GCTGAAGA,0.0474
15,AACTGCAC,0.223
16,AACAGCTG,0.104
17,AGAGAAAG,0.0568
18,CAATCCGG,0.0149
19,ATTGCTCA,0.148
20,CAGCTACC,-0.0776
